# Assay results reported in article PMC3632089.
# Chains of the proteins cited; added tags and fusions are not shown.
# UniProt O95747: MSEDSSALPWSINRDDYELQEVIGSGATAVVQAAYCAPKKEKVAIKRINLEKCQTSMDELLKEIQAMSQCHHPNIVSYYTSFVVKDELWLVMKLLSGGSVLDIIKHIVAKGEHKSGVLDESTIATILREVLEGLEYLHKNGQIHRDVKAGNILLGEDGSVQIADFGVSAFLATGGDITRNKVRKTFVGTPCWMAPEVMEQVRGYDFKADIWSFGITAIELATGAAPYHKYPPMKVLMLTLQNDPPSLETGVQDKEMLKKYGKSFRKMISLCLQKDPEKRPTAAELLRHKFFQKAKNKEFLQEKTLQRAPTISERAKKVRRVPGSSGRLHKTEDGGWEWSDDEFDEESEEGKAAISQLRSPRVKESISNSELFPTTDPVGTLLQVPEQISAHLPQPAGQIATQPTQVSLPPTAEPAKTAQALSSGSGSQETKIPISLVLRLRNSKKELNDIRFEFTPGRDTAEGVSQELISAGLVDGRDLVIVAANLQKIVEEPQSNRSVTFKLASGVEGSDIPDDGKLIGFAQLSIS
# UniProt Q9H4A3: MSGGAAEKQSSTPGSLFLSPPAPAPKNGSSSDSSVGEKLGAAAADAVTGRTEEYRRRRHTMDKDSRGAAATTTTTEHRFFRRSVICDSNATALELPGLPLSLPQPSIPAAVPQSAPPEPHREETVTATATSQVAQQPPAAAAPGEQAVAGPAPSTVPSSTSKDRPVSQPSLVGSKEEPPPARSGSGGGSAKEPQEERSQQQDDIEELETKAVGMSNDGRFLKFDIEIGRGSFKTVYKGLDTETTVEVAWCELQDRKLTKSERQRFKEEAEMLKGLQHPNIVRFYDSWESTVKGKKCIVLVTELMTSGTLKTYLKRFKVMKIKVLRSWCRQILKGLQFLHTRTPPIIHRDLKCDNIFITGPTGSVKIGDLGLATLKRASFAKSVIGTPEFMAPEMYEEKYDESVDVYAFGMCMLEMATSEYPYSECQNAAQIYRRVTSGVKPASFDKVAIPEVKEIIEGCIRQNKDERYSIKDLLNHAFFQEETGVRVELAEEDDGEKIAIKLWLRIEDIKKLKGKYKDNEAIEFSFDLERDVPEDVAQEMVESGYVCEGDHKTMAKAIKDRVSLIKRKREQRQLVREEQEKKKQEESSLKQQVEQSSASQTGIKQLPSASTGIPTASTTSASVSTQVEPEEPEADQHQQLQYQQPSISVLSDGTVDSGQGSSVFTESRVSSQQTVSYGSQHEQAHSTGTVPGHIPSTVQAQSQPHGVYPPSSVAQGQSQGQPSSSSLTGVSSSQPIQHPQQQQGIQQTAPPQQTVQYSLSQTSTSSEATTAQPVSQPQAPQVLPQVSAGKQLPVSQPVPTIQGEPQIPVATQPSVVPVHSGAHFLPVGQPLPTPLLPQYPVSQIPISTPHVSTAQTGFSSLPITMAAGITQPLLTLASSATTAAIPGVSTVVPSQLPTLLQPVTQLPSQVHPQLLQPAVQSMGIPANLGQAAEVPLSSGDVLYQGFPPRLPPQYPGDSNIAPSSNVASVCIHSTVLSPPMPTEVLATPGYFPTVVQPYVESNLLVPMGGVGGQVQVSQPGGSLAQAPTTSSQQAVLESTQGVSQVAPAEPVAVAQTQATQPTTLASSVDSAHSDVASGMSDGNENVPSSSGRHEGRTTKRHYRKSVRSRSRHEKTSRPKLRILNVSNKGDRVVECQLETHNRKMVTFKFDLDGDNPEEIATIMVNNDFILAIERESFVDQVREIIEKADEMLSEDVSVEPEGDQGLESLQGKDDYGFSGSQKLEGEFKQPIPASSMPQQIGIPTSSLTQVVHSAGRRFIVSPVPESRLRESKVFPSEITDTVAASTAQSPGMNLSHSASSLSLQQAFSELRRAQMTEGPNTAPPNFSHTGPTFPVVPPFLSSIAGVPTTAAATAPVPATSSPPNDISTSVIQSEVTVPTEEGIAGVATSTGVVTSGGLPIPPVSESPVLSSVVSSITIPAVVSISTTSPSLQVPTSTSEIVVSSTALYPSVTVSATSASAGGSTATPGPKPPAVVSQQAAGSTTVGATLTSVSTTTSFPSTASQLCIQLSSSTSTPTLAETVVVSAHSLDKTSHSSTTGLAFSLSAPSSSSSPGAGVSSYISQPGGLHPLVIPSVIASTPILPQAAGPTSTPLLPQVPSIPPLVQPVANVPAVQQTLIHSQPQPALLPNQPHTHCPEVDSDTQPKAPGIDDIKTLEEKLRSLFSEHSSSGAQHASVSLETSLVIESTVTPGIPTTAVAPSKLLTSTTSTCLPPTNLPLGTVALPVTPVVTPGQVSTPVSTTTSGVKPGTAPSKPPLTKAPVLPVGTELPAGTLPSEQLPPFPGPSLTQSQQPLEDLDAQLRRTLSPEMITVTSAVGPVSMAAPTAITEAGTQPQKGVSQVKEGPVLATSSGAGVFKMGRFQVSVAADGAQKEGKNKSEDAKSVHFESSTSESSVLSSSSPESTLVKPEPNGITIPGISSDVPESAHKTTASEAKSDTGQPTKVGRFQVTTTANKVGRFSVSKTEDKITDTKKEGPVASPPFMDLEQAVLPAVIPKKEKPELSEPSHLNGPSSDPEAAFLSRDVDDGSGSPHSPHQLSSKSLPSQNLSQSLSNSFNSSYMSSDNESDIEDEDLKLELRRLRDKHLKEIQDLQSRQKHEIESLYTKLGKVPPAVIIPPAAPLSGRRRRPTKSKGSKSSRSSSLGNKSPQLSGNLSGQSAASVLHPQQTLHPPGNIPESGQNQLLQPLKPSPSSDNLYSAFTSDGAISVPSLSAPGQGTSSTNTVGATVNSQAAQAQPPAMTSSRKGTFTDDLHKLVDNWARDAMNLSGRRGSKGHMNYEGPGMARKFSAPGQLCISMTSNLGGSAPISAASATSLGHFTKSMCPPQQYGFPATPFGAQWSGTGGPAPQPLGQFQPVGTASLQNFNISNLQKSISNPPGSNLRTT
# Where a chain is given by its changes, count along the chain named. These are yes or no findings as the source states them, for the method shown. Binding seen in cells or lysates may run through a third protein. Some entries that bind do so weakly or less than the wild type. Sequences can lack the tags named with a protein.
# T1: GFP-tagged wild-type KLHL3 (human) (UniProt Q9UH77)
# T1 sequence: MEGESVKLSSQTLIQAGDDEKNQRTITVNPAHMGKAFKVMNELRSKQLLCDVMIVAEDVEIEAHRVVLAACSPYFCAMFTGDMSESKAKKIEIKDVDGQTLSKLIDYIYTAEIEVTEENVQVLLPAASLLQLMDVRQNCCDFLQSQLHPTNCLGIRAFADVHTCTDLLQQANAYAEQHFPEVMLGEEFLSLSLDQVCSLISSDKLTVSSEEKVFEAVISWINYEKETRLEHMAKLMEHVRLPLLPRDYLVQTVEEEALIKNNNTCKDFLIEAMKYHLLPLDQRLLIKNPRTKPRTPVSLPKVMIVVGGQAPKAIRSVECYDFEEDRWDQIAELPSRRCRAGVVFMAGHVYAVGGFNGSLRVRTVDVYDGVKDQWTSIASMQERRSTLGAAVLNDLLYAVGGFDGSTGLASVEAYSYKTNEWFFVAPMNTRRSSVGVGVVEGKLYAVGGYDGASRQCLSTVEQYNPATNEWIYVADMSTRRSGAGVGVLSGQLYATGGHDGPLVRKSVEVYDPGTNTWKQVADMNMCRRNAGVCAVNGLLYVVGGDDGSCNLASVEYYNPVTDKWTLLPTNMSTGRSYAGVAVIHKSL
# T2: FLAG-tagged KLHL3[A340V] (human) (UniProt Q9UH77)
# T2 sequence: T1 sequence with A340V
# T3: FLAG-tagged KLHL3[A494T] (human) (UniProt Q9UH77)
# T3 sequence: T1 sequence with A494T
# T4: FLAG-tagged KLHL3[R528H] (human) (UniProt Q9UH77)
# T4 sequence: T1 sequence with R528H
# T5: FLAG-tagged KLHL3[S432N] (human) (UniProt Q9UH77)
# T5 sequence: T1 sequence with S432N
# T6: FLAG-tagged wild-type KLHL3 (Kelch-like 3) (human) (UniProt Q9UH77)
# T6 sequence: T1 sequence
# T7: NKCC1 (Na+/K+/2Cl- co-transporter 1), endogenous (human (endogenous in HEK-293)) (UniProt P55011)
# T7 sequence: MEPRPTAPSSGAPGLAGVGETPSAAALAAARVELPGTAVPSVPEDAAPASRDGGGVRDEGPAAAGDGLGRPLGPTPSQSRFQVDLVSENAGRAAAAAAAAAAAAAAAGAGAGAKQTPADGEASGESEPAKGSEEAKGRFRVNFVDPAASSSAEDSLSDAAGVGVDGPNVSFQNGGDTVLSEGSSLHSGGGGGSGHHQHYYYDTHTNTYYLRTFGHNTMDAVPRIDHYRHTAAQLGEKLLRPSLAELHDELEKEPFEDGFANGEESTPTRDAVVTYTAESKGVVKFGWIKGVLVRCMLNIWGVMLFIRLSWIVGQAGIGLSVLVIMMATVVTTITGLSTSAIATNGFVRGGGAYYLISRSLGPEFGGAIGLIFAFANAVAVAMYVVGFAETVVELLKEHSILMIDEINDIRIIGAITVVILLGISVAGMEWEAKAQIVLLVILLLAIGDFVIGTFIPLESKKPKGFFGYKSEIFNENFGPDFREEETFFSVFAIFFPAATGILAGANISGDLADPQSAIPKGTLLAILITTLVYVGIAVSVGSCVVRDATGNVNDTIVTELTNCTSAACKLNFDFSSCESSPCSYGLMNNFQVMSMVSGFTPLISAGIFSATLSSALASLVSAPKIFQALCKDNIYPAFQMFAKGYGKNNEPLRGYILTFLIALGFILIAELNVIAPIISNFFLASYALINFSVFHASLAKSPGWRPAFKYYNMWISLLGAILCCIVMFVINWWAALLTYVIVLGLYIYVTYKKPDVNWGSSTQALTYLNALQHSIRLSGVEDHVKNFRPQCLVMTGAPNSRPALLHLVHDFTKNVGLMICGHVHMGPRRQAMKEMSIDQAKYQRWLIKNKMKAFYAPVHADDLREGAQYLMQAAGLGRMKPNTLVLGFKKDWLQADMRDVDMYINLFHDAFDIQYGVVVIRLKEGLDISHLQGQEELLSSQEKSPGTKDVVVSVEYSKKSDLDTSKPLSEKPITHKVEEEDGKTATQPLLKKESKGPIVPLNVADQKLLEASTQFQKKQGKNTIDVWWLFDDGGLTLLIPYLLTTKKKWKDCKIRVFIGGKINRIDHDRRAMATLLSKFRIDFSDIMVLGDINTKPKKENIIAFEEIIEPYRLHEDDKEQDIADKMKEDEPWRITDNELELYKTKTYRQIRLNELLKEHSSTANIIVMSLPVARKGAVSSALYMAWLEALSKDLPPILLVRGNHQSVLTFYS
# B1: FLAG-tagged wild-type KLHL3 (Kelch-like 3) (protein, UniProt Q9UH77-1 1-587)
# chain: T1 sequence
# Legend:
# [1] = molecular target: T1, GFP-tagged wild-type KLHL3 (human); test: co-IP; GFP-KLHL3 transfected into HEK-293 cells stably expressing FLAG-NCC; anti-GFP agarose IP from 0.2 mg extract; immunoblot
# [2] = molecular target: T2, FLAG-tagged KLHL3[A340V] (human); test: co-IP; anti-FLAG agarose IP of FLAG-KLHL3 (wild type or mutant) from 0.2-5 mg HEK-293 lysate; washes with 0.5 M NaCl; immunoblot for endogenous WNK1 and CUL3
# [3] = molecular target: T3, FLAG-tagged KLHL3[A494T] (human); test: as above
# [4] = molecular target: T4, FLAG-tagged KLHL3[R528H] (human); test: as above
# [5] = molecular target: T5, FLAG-tagged KLHL3[S432N] (human); test: as above
# [6] = molecular target: T6, FLAG-tagged wild-type KLHL3 (Kelch-like 3) (human); test: as above
# [7] = molecular target: T7, NKCC1 (Na+/K+/2Cl- co-transporter 1), endogenous (human (endogenous in HEK-293)); test: co-IP; endogenous WNK1, SPAK/OSR1 or NKCC1 immunoprecipitated from 0.2 mg HEK-293 extract with antibodies coupled to Protein G-Sepharose; immunoblot for FLAG-KLHL3
# [8] = molecular target: OSR1 (oxidative stress-responsive kinase 1), endogenous (human (endogenous in HEK-293)) (UniProt O95747); test: as above
# [9] = molecular target: WNK1 (with no lysine kinase 1), endogenous (human (endogenous in HEK-293)) (UniProt Q9H4A3); test: as above
binding [1],binding [2],binding [3],binding [4],binding [5],binding [6],binding [7],binding [8],binding [9],Molecule
binds,binds,binds,binds,no binding,binds,–,–,–,"WNK1 (with no lysine kinase 1), endogenous (from UniProt Q9H4A3 1-2382)"
–,–,–,–,–,–,no binding,no binding,binds,B1
